Measured values published in publication PMC6919601, “Identification of Plasmodium dipeptidyl aminopeptidase allosteric inhibitors by high throughput screening” (PLoS ONE, 2019).
Out of some 110,000 compounds screened, about 230 (0.21%) showed an effect of 50% or more. Some of the results follow.

The compounds below were run against DPAP1 (Plasmodium falciparum, UniProt Q8IIJ9) (assay: primary screen, percent inhibition; read by cleavage of a fluorogenic dipeptide substrate; higher = more effect of the substance).
Sequence of DPAP1 (Q8IIJ9 whole entry, looked up): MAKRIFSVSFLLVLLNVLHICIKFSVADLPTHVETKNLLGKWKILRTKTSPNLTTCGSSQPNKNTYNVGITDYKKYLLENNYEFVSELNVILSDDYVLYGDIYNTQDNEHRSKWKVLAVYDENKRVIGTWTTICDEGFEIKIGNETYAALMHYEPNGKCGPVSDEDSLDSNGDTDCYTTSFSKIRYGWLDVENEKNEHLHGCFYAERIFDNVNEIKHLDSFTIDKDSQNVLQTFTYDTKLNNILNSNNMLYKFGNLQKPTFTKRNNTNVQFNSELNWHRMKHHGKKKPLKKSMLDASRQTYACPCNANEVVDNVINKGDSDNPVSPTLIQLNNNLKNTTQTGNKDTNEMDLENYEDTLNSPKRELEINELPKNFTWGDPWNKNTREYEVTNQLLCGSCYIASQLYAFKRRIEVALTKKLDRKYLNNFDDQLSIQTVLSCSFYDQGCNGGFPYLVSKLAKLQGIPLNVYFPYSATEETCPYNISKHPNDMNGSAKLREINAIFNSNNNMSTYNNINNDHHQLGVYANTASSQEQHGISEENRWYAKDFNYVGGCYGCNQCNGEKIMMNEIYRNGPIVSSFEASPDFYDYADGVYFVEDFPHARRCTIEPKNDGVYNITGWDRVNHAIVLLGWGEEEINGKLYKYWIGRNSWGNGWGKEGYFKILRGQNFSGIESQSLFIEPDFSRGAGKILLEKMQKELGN
Parameters: species or system P. falciparum D10 trophozoite lysates; single well
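Note: 30 min substrate incubation versus DMSO and 10 µM JCP410 controls.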

SMILES	% Inhibition @ 10 uM
O=C1CNC(=O)N1C12CC3CC(CC(C3)C1)C2	-3.42%
O=C1c2ccccc2C(=O)N1CC1c2ccccc2CCN1C(=O)COc1ccc(Cl)cc1Cl (stereo not drawn)	-1.24%
CCN(CC)C(=O)C1=CC(c2ccc(OC)cc2)=NS(=O)(=O)N1C	2.32%
CC(NC(=O)c1ccc(C2SCC(=O)N2CCc2ccccc2)cc1)c1ccccc1 (stereo not drawn)	0.561%
COCC(C)NC(=O)C1CC(c2ccc(F)cc2)=NO1 (stereo not drawn)	-4.17%
Cc1cc(C)n(-c2nc3cc(Cl)c(Cl)cc3n3nnnc23)n1	3%
Cc1ccc(CSCc2ccc(C(=O)NCCCN3CCOCC3)o2)cc1	-1.21%
COc1ccc(CN2CCN(c3ccc([N+](=O)[O-])cc3)CC2)cc1Br	0.708%
Cc1cc(C)cc(OCC(=O)NCc2cc(C)nc3ccccc23)c1	2.57%
Cc1ccc(Oc2cc(-n3cncn3)ncn2)cc1	3.21%
Cc1cccc(NC(=O)CN2C(=O)N/C(=C/c3cccn3-c3ccccc3F)C2=O)c1	-4.05%
Cn1ncc(C(=O)NCC2CCN(C3CCCC3)C2)c1C1CCN(C(=O)OC(C)(C)C)CC1 (stereo not drawn)	8.98%
CCc1c(C)nn2cnnc2c1O	-0.186%
CN1C(=O)c2ccccc2C(C(=O)N2CCN(C(=O)c3ccco3)CC2)C1c1cn(C)c2ccccc12 (stereo not drawn)	0.559%
COc1ccc(CC(=O)Cn2c(SCc3ccc(F)cc3)nc3ccncc32)c(OC)c1	8.62%
O=S1(=O)c2ccccc2Oc2ccccc21	-2.63%
COc1ccc(S(=O)(=O)N2CCC(n3c(O)nc4ccccc43)CC2)cc1OC	1%
CCOCCCNC(=O)CN1C(=O)c2ccccc2Sc2ncccc21	-0.959%
CCOc1ccc(-c2csc(/C(C#N)=C/c3cccc(Cl)c3)n2)cc1	-4.31%
O=C(NCc1ccccn1)C(=O)NCC(c1cccnc1)N1CCOCC1 (stereo not drawn)	-7.29%
Cn1c(SCC(O)COc2ccccc2)nc2ccccc21 (stereo not drawn)	0.0265%
Cc1ccc(-c2nc(C#N)c(Nc3ccccc3)o2)cc1	1.21%

SMILES	% Inhibition @ 10 uM
CCCCCc1cnc(-c2ccccc2O)nc1	0.219%
Clc1ccc(Cn2c(C3CCCO3)nc3ccccc32)cc1 (stereo not drawn)	-4.82%
COCCCNC(=O)Cn1ncc2c3ccccc3nc-2c1O	7.2%
Cc1ccc2c(CC(=O)N(Cc3ccc(F)cc3)C3CCS(=O)(=O)C3)coc2c1C (stereo not drawn)	-4.19%
O=C(C1=C(O)C(=O)N(c2ccccn2)C1c1ccc(F)cc1)c1ccc(Cl)cc1 (stereo not drawn)	2.82%
Cc1ccc(S(=O)(=O)NCCCN2CCOCC2)cc1	3.32%
C=CCC(C#N)(CC=C)c1ccc(OC)c(OC)c1	1.67%
COC(C)(C)CCC[C@@H](C)C(O)CO (stereo partly drawn)	-5.46%
CCN(Cc1ccccc1)C(=O)C1CCN(c2nnc(C)c3c(C)n(-c4ccccc4)nc23)CC1	-1.95%
OCCN1CCN(Cc2c(F)cccc2F)CC1	-1.41%
Cc1cccc(Cn2c(N3CCOCC3)nc3c2c(=O)[nH]c(=O)n3C)c1	-4.6%
CCCC1=NN2C(=O)CC(=O)N=C2S1	5.04%
CCN(CC)S(=O)(=O)c1nnc(NC(=O)COc2ccccc2C)s1	1.68%
CCC1CCc2nc3sc(C(=O)NCc4ccc(OC)cc4)c(N)c3cc2C1 (stereo not drawn)	10.9%
CC(C)CCNc1ncnc2c1nc1n2CCCCC1	7.44%
Nc1cc[n+](C/C=C/c2ccccc2)cc1	-2.53%
COc1ccc(-n2c(C)cc(/C=C3/C(=N)N4C(=NC3=O)SN=C4S(C)(=O)=O)c2C)cc1	1.85%
CCCCC(C(=O)O)N1C(=O)c2ccccc2C1=O (stereo not drawn)	2.24%
COc1ccc(S(=O)(=O)Nc2ccc(C)cc2NS(=O)(=O)c2ccc(OC)cc2)cc1	0.727%
CC1=C(C(=O)Nc2ccc(C)cn2)C(c2cccc(Br)c2)C2=C(O)CC(C)(C)CC2=N1 (stereo not drawn)	1.4%
Cc1cccc(-c2noc(-c3ccccn3)n2)c1	-3.33%
CCOc1ccc(NC(=O)c2ccc(OC)cc2)cc1	-5.38%

SMILES	% Inhibition @ 10 uM
COc1ccc(C2C3=C(O)CC(C)(C)CC3=NC(C)=C2C(=O)Nc2ccccc2C)c(OC)c1 (stereo not drawn)	0.658%
CC1Cc2scc[n+]2-c2ccccc2N1C(=O)Nc1ccccc1 (stereo not drawn)	5.49%
CC1C2=C(O)CC(C)(C)CC2=Nc2sc(C(N)=O)c(N)c21 (stereo not drawn)	7.24%
CC(C)(C)NC(=O)Nc1cccc(Cl)c1	4.57%
O=C(Nc1ccc2c(c1)OCCO2)Nc1cccc2ccccc12	0.605%
O=[N+]([O-])c1ccccc1NS(=O)(=O)c1ccccc1[N+](=O)[O-]	-0.999%
Nc1ccc(-c2nc3ccc(N)cc3s2)cc1	-5.49%
CC(=O)N1N=C(c2ccc(O)cc2)CC1c1ccc(Cl)c(Cl)c1 (stereo not drawn)	-5.92%
COc1cc(OC)cc(C(=O)Nc2ccccc2C)c1	-12.2%
CCn1c(N2CCCCCC2)nc2c1c(=O)[nH]c(=O)n2C	-3%
CC(=O)NS(=O)(=O)c1cccnc1Nc1cccc(Cl)c1C	-0.46%
COc1ccc(C(=O)N/C(=C/c2ccc(OC)c(OC)c2)C(=O)N2CCOCC2)cc1	-2.07%
O=C(Cn1cnc(S(=O)(=O)N2CCCC2)c1)NC1CCCc2ccccc21 (stereo not drawn)	-4.36%
COc1ccccc1OCc1nc(C#N)c(N(C)C)o1	-0.958%
Cc1nc2ncnn2c(O)c1CCC(=O)NCCc1c[nH]c2ccccc12	2.12%
O=C1NC(=S)S/C1=C\c1c(NCC2CCCO2)nc2ccccn2c1=O (stereo not drawn)	-6.95%
O=C(N1CCOCC1)N1CCN(Cc2ccccc2)CC1	1.54%
O=C(c1ccc(CS(=O)c2ccccc2Cl)o1)N1CCOCC1 (stereo not drawn)	1.77%
CC(C)c1ccc([C@H]2[C@@H]3CCCC=C3C(C#N)=C(N)C2(C#N)C#N)cc1	0.0719%
CC(C)(C)c1ccc(OCCCCCN2CCOCC2)cc1	5.35%
CSc1nc(N2CCOCC2)c2ccccc2n1	-4.65%
CN(C)S(=O)(=O)c1ccc(C(=O)NCCC23CC4CC(CC(C4)C2)C3)cc1	-5.51%
